Source: publication PMC4336329 (PLoS ONE, 2015)
Among all 310,000 compounds or so, about 14,000 (4.5%) showed an effect of 50% or more. The effect is printed as a negative number. This is one part of the list. Where a SMILES comes first, the peptide text is derived from it. [ ]: non-standard residue; d: D form. The star is where a group is joined. ξ: configuration not given here. ξArg(NO2) = N=C(NCCCC(N)C(=O)O)N[N+](=O)[O-]; Bz = O=C(c1ccccc1)*

target: human ether-à-go-go-related gene (hERG) potassium channel (human, UniProt Q12809); test: primary screen, population patch clamp on CHO cells stably expressing hERG
Sequence (Q12809 whole entry, looked up): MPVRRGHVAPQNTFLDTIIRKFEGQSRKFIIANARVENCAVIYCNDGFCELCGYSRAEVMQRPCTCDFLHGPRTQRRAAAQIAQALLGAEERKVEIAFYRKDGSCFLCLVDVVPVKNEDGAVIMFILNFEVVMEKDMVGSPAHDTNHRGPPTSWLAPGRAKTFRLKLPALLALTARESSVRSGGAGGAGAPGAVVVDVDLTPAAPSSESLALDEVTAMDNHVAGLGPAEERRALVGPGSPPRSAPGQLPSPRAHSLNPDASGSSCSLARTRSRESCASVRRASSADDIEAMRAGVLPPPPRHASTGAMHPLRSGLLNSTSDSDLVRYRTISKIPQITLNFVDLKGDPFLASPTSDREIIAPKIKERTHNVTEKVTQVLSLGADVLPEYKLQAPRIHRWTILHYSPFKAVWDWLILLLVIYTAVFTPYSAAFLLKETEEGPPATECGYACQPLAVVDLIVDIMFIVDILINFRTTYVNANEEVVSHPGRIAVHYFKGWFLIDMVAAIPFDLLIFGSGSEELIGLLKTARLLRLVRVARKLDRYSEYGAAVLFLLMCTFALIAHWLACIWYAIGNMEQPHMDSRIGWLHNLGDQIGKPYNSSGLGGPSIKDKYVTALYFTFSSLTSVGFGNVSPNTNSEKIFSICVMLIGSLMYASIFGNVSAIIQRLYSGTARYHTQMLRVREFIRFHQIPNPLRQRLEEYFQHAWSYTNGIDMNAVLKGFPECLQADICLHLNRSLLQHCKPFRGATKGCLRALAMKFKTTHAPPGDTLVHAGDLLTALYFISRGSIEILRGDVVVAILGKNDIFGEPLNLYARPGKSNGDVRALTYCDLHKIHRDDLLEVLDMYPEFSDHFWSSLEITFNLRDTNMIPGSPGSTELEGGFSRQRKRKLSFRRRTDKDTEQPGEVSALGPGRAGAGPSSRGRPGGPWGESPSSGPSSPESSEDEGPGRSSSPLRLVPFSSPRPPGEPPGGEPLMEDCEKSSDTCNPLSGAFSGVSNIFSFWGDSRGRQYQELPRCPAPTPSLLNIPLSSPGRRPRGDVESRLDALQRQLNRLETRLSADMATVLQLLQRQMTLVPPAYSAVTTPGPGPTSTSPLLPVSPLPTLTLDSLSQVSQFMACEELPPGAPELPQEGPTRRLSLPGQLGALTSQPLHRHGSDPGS
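Further: peak tail current of the secondary pulse compared with the same well before compound.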

SMILES	hERG current change (%, negative = inhibition) at 10uM
COc1cc([N+](=O)[O-])ccc1NC(=O)C[n+]1ccccc1C.[Cl-]	11%
CN(C(=S)NC(=O)c1ccccc1)C1CCCCC1	8.82%
CCO[C@@H]1OC(C(=O)NCc2ccccc2)=C[C@H](c2cn(C(C)=O)c3ccccc23)[C@H]1CCCO	-82.9%
N/C(=N\[N+](=O)[O-])NCCCC(NC(=O)CNC(=O)c1ccccc1)C(=O)O (stereo not shown) (Bz-Gly-[ξArg(NO2)]-OH)	7.25%
CCCCN1C(=O)C(=O)N(CC(=O)c2ccc[nH]2)C1=O	9.85%
COc1ccc(NC(=O)CSc2ncn[nH]2)c([N+](=O)[O-])c1	-4.71%
O=C(NCCc1ccncc1)Nc1ccc(Cl)cc1	-25.9%
O=C(NCC1CCCO1)c1nc2c(nnn2Cc2ccccc2Cl)c(=O)[nH]1 (stereo not shown)	-0.506%
Cc1ccc(Cl)c2c1NC(=O)C2(O)CC(=O)c1ccc(F)cc1 (stereo not shown)	-4.92%
COc1cc(CCC(=O)OCC(=O)Nc2ccccc2OC(F)F)cc(OC)c1OC	16.4%
Cn1ncc([N+](=O)[O-])c1C(=O)Nc1ccccc1	8.52%
OCC[C@@H]1C[C@@H](O)[C@H](O)[C@@]2(Cc3ccccc3CO2)O1	10.9%
COc1ccc(-c2nc(CS(=O)(=O)CC(=O)NCCc3ccccc3)c(C)o2)cc1	14%
Cc1cccc2nc(=S)n(C(=O)c3ccco3)n12	10.7%
CCOc1ccc(-c2nnn(CC(=O)c3cc(OC)ccc3OC)n2)cc1	-7.91%
N#Cc1c2n(c(=S)n(-c3ccc(OC(F)F)cc3)c1=O)CCCCC2	-23.4%
CCOc1cc(N2CCOCC2)c(OCC)cc1NC(=S)NCCCOC	4.57%
Cc1ccc(C(=O)NCCc2sc(C)nc2C)cc1	24%
COC(=O)c1sccc1NS(=O)(=O)c1ccccc1	20.2%
CS(=O)(=O)Nc1ccc(S(=O)(=O)Nc2nccs2)cc1	19.1%
O=C(COC(=O)c1ccccc1NCCO)Nc1cc(C(F)(F)F)ccc1N1CCOCC1	-60.2%
Cc1cc(C(=O)COC(=O)CNS(=O)(=O)c2ccc3ccccc3c2)c(C)n1-c1ccccc1	20.5%

SMILES	hERG current change (%, negative = inhibition) at 10uM
CCN(Cc1cc(=O)n2cc(Cl)c(C)c(Cl)c2n1)Cc1nc2ccccc2c(=O)[nH]1	-31.9%
O=C(CSc1ccccc1)Nc1nnc(COc2ccc(Cl)cc2)s1	-4.39%
O=C(O)CCC(=O)Nc1ccccc1C(=O)NCc1ccco1	25.2%
COc1cc(CNc2ncc(-c3ccc(Br)cc3)n2C)cc(OC)c1O.O=C(O)C(=O)O	-60.5%
Cc1ccc(SCCNCc2ccco2)cc1.Cl	-3.01%
CC(=O)/C(N=Nc1ccc(OC(F)(F)F)cc1)=C(\C)O	4.69%
CCOC(=O)N1CCN(C(=O)c2ccc(NS(C)(=O)=O)cc2)CC1	-5.65%
CCOC(=O)N1CCN(S(=O)(=O)c2ccc(C(=O)Nc3sc4c(c3C(N)=O)CC(C)(C)NC4(C)C)cc2)CC1	20.3%
O=C1CCC(C(=O)N2CCN(c3cnccn3)CC2)CN1CCc1cccc(F)c1 (stereo not shown)	-25.7%
Nc1nc2ncc(-c3ccsc3)c(N)n2n1	-31.3%
CC(C)CCC1(CCNC(C)c2cccs2)CCOC(C)(C)C1 (stereo not shown)	-7.73%
CCN1CCCC1CN(Cc1cc2ccc(C)cc2[nH]c1=O)C(=S)Nc1ccc(OC)cc1 (stereo not shown)	25.3%
CCN(CC)S(=O)(=O)c1ccc(NC2c3ccccc3C(=O)N2Cc2ccc3c(c2)OCO3)cc1 (stereo not shown)	-0.55%
NNC(=O)CN1C(=O)CN=C(c2ccccc2)c2cc(Br)ccc21	-5.51%
N/C(=N\OC(=O)c1csnn1)c1ccc(C(F)(F)F)cc1	4.62%
CC(C)(C)NC(=O)CN(C(=O)c1snc(C(=O)NC2CCCCC2)c1N)c1ccc(F)cc1	-8.06%
Fc1ccc(Nc2nnc(C(F)(F)F)s2)cc1Cl	10.2%
Cc1ccc(N2C(=O)C3CC(c4ccccc4)=C4C5C=CC(C6C(=O)N(c7ccc(C)cc7C)C(=O)C56)C4C3C2=O)c(C)c1 (stereo not shown)	7.82%
Cc1nc(OCC(=O)c2ccc(Cl)cc2)c(C#N)c2c1COC(C)(C)C2	5.74%
COc1ccc(-c2noc(CCCC(=O)NC3CCCC3)n2)cc1	2.23%
C#CCSc1nnc(-c2ccc(C)cc2)o1	-11.9%
